In article PMC4336329 (PLoS ONE, 2015):
In all, about 310,000 compounds went through this assay and about 14,000 (4.5%) showed an effect of 50% or more. Effects have a minus sign here. The list shows a part of the results.

target: human ether-à-go-go-related gene (hERG) potassium channel (human, UniProt Q12809); assay: primary screen, population patch clamp on CHO cells stably expressing hERG
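Further: peak tail current of the secondary pulse compared with the same well before compound.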

Sequence of human ether-à-go-go-related gene (hERG) potassium channel (Q12809 whole entry, looked up): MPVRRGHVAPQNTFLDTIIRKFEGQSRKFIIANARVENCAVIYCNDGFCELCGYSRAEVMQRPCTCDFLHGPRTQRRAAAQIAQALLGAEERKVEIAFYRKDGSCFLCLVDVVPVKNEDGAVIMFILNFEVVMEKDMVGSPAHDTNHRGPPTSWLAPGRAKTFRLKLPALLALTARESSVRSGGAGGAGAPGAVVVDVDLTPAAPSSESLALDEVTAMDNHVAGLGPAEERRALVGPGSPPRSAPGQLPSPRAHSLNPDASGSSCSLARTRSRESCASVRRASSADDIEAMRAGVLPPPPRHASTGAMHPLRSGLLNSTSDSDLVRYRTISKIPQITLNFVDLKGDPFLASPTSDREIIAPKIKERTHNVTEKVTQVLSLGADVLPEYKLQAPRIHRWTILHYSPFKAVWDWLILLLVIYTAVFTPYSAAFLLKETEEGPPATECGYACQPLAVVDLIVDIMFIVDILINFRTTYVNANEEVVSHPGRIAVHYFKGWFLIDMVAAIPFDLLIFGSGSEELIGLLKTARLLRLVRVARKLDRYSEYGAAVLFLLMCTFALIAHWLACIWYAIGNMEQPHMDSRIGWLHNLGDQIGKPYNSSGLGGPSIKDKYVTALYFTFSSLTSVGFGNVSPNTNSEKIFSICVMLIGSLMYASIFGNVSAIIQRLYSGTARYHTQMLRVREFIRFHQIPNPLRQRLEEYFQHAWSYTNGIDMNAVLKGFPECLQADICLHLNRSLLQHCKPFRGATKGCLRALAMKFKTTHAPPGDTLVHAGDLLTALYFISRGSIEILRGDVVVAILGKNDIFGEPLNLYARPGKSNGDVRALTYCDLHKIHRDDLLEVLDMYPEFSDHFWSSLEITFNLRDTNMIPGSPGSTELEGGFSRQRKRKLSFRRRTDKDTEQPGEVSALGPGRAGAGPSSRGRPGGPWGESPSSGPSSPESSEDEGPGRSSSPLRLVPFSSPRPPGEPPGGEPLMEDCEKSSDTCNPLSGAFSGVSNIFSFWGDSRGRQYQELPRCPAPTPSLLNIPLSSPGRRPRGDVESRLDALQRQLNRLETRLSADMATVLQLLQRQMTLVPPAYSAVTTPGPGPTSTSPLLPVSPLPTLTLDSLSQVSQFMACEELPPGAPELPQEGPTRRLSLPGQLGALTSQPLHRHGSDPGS

Row | Compound | hERG current change (%, negative = inhibition) at 10uM [%]
1 | O=C(Nc1sc2c(c1C(=O)O)CCCC2)c1cccc(Cl)c1 | 61.4
2 | O=C(CSc1nc2ccccc2n1CCc1ccccc1)N1CCOCC1 | -19.2
3 | CC1CCCCN1CCCNC(=O)c1nn(C)c2c1CS(=O)(=O)c1ccccc1-2 (stereo not shown) | -8.49
4 | CCCCNC(=O)CC1N=C2c3ccccc3N=C(SCC(=O)Nc3ccccc3OC)N2C1=O (stereo not shown) | -47.4
5 | Cc1cc([N+](=O)[O-])nn1CC(=O)NC1CCCCC1 | 16
6 | COc1ccc(C(=O)Nc2nc(C)c(C(C)=O)s2)cc1S(=O)(=O)N1CCOCC1 | 0.765
7 | C(=N\n1cnnc1)/C1CCCCC1 | 14.4
8 | Cc1ccc(C(=O)CC(=O)COc2ccc(Cl)cc2C)cc1 | -2.39
9 | CC(=O)N1CCOc2ccc(S(=O)(=O)NCC3CCC(C(=O)NCCC(C)C)CC3)cc21 (stereo not shown) | 13
10 | COc1ccc(-c2cc3c(=O)n(CC(=O)NCCCN4CCC(Cc5ccccc5)CC4)ncn3n2)cc1 | -72.4
11 | O=C(/C=C/c1ccccc1)NC(=S)Nc1ccccc1 | 20.6
12 | Cc1ccc(CNC(=O)CCCOc2cc(=O)n(C)c3ccccc23)o1 | -17.9
13 | CC(=O)c1ccc(N2CCN(Cc3nc4ccccc4[nH]3)CC2)cc1 | -13.2
14 | O=C(NCc1ccccn1)[C@H]1C[C@@H]1[C@H](NP(=O)(c1ccccc1)c1ccccc1)c1ccccc1 | -9
15 | Cc1ccc(S(=O)(=O)N2CC=C(C(=O)NCc3ccccc3)CC2)cc1 | -9.94
16 | CCn1nc(C(=O)NNC(=O)COc2ccccc2C)c2ccccc2c1=O | -16
17 | NC(=O)C1CCN(C(=O)c2cc(S(=O)(=O)N3CCOCC3)c(Cl)cc2Cl)CC1 | 8.61
18 | O=C(NCCO)c1ccccc1O | 15
19 | COc1ccc(C2NC(c3ccc(OC)c(OC)c3OC)C(C)C(=O)C2C)c(OC)c1OC.Cl (stereo not shown) | 8.95
20 | CCc1ccccc1NC(=O)C1CCN(C(=O)c2cccs2)CC1 | -24.3
21 | COc1ccc(NC(=O)Cn2nnc(C(=O)Nc3ccc(F)c(Cl)c3)c2N)cc1 | 25.9
22 | COC(=O)c1ccsc1NC(=O)CCS(=O)(=O)c1ccccc1 | 6.36
23 | CCN(CC)S(=O)(=O)c1ccc(NC(=O)c2ccc(Cl)nc2)cc1 | -22.3
24 | COc1ccc(/C=C(/C#N)C(=O)Nc2ccccc2C)cc1C(=O)O | 16.8
25 | O=C(COc1ccc2ccccc2c1Br)N1CCCC1 | -9.24
26 | COc1ccc(N2CCN(C(=O)c3ccc(NS(=O)(=O)c4ccccc4)cc3)CC2)cc1 | -40.8
27 | COc1ccc(OC)c(Nc2nc(NCc3ccco3)c3ccccc3n2)c1.Cl | -12.2
28 | COc1ccc(CN2CC(C(=O)NCCc3ccc(Cl)cc3)CC2=O)cc1 (stereo not shown) | -16.5

Row | Compound | hERG current change (%, negative = inhibition) at 10uM [%]
29 | COC(=O)C1=C(C)NC(=O)C1(NC(=O)c1ccncc1)C(F)(F)F (stereo not shown) | 9.15
30 | Cc1ccc(CCNC(=O)C2CCN(C(=O)N(C)C)CC2)cc1 | 2.96
31 | Cc1ccc2nc(SCC(=O)Nc3ccc4c(c3)OCCO4)nc(=O)n2c1 | 0.235
32 | COc1cc(C2CC(=O)c3cnc(NC(=O)COc4ccccc4)nc3C2)cc(OC)c1OC (stereo not shown) | -3.29
33 | CCOC(=O)N1CCN(C(=O)c2ccc(N(C)S(=O)(=O)c3ccc(C)cc3)cc2)CC1 | -33.1
34 | CSc1n[nH]c(-c2ccc(C(F)(F)F)cc2)n1 | 13.2
35 | CC(=O)Nc1ccc(S(=O)(=O)Nc2nccc(/C=C/c3ccccc3F)n2)cc1 | 14.1
36 | N#CCCN(C(=O)CSc1ccc2c(c1)OCCO2)c1ccc(F)cc1 | 3.49
37 | CN1CCCN(C(=O)C2CCC(C(=O)N3CCCN(C)CC3)CC2)CC1.Cl (stereo not shown) | 35.8
38 | Cl.O=C(CSc1nc2cc(Cl)ccc2o1)Nc1ccc(N2CCOCC2)cc1 | 0.61
39 | CCN(CCn1cccn1)C(=O)c1cc(COc2ccc(F)c(F)c2)on1 | -96
40 | CCCC(=O)c1ccc(N2CCN(C(=O)c3ccc(Br)cc3)CC2)c(F)c1 | 2.35
41 | Cn1c(=O)c2ccccc2n(CC(=O)NC2CCCCC2)c1=O | 7.09
42 | COc1cccc(NC(=O)C2CCN(c3ncccn3)CC2)c1 | -11.7
43 | Cc1cccc(NC(=O)c2ccccc2NC(=O)c2ccccc2)n1 | -0.693
44 | COc1ccc(N2CCC(CNC(=S)Nc3c(C)cc(C)cc3C)C2)cc1 (stereo not shown) | 11.4
45 | COC(=O)[C@H](C)NC(=O)Nc1ccc(OC(F)(F)F)cc1 | 10.8
46 | C1CCC(CNc2c3c(nc4nnnn24)CCCC3)CC1 | 4.78
47 | COc1ccc(CC(=O)NC2CC2)cc1OC | 11.4
48 | Cc1ccc(S(=O)(=O)N2CCN(C(=O)c3cc4c(C)nn(-c5ccccc5C)c4s3)CC2)cc1 | -4.39
49 | COC(=O)c1cc(OC)c(OC)cc1NC(=S)N1CCCCC1 | -9.9
50 | CCNC(=O)C1CN(S(=O)(=O)c2ccccc2)CCN1S(=O)(=O)c1ccccc1 (stereo not shown) | -9.54
51 | O=C(CNC(=O)N1CC(=O)Nc2ccccc21)NCc1ccc(Cl)cc1 | 16.9
52 | CC(=O)c1c(C)[nH]c(C(=O)OCCCCN2C(=O)c3ccccc3C2=O)c1C | 9.16
53 | CCOc1ccc(NC(=O)C2CC(=O)N(CC)C(=Nc3ccc4c(c3)OCO4)S2)cc1 (stereo not shown) | 8.36
54 | CCOCCCNc1c2c(nc3cc(-c4ccc(F)cc4)nn13)CCC2 | 10.1
55 | Br.CCn1c(=N)n(CC(=O)C23CC4CC(CC(C4)C2)C3)c2ccccc21 | -32.3
